Measurements from PubChem BioAssay AID485364 (National Center for Advancing Translational Sciences (NCATS), 2010).
Screen size: about 360,000 compounds; about 11,000 (3.1%) were called active. This list was built around the results that the source calls inconclusive (neither active nor inactive); the mix of calls is not that of the screen. The call rests on the fitted dose curve; in most records, active means well fitted inhibition curve with a large enough effect; inconclusive means small, poorly fitted or top-dose-only effect; inactive means no such curve, though single readings can be large or run the other way. Potencies of inconclusive entries are left out as doubtful fits.

What follows are compounds tested against Schistosoma mansoni thioredoxin glutathione reductase (TGR) (UniProt Q962Y6) (assay: qHTS Assay for the Inhibitors of Schistosoma Mansoni Peroxiredoxins). Details: purified TGR, DTNB reduction, TNB absorbance 405 nm; activity change, negative = inhibition: at 114 µM (top of the series) unless noted.
Outline: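 First, TGR (20 nM dispensed) and NADPH were mixed with compound. Second, a 15 min room-temperature incubation followed. Third, further NADPH and then DTNB were added to start the reaction. Finally, TNB absorbance was monitored kinetically.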
Further: nearly all actives have a fitted effect of over 60% in size.
On the % scale 0 is the no-effect control and ±100 the full control effect; potency means the concentration at half of the fitted maximal effect; tags describe the fitted curve by direction and shape.

Structure (SMILES)	Potency	activity change, negative = inhibition
CSc1nc(O)c(C(c2ccc(C)cc2)c2c(O)nc(SC)[nH]c2=O)c(=O)[nH]1	active: 44.7 µM	–
Cc1ccc(NC(=S)NC(=O)C2CCCC2)cc1C	inconclusive [inhibitor, full curve]	–
Cc1ccc(NC(=O)C2CCCN2S(=O)(=O)c2cccc3nsnc23)c(C)c1 (stereo not drawn)	–	inactive: 8.42%
COCCN1CCn2c(nc3cc(NC(C)=O)ccc32)C1	active: 14.1 µM	–
Cc1cccc(Nc2ncnc(N)c2[N+](=O)[O-])n1	–	inactive: 7.04%
Cc1ccc(C(=O)O/N=C(\N)Cc2cccs2)cc1[N+](=O)[O-]	–	inactive: -0.118%
CC(=O)N1CCC(=NNc2ccnc3cc(Cl)ccc23)CC1	inconclusive [inhibitor, partial curve]	–
Cc1cccnc1NC(=S)NC(=O)/C=C/c1ccco1	inconclusive [inhibitor, full curve]	–
COc1ccc(NC(=O)c2c(NCc3ccc(N(C)C)cc3)sc3c2CCC3)cc1	active: 31.6 µM	–
COCc1ccc(CN2CCCC(C(=O)Nc3ccc(-c4cscn4)cc3)C2)o1 (stereo not drawn)	inconclusive [inhibitor, partial curve]	–
COc1ccccc1C(OC(=O)c1ccco1)C(=O)NCc1ccc(F)cc1 (stereo not drawn)	–	inactive: 4.55%
O=C(Cn1nc(-c2ccccc2)c2ccccc2c1=O)Nc1ccc2c(c1)nc1n2CCOC1	inconclusive [inhibitor, full curve, poor fit]	–
C=CCn1c(SCC(=O)Nc2nccs2)nnc1-c1ccco1	inconclusive [inhibitor, partial curve]	–
CCOC(=O)c1ccc(NCCc2ccc(OC)c(OC)c2)c(N)c1	–	inactive: -1.18%
Cn1c(=O)c(C(=O)CCl)c(N)n(Cc2ccccc2)c1=O	active: 7.08 µM	–
Cc1cc(=O)n2[nH]c(-c3ccsc3-n3c(C)ccc3C)cc2n1	active: 20 µM	–
Cc1ccccc1C(=O)NC(=S)Nc1ccc(N2CCOCC2)cc1	inconclusive [inhibitor, full curve]	–
Cc1ccc(N/N=C2\CCS(=O)(=O)c3sccc32)cc1	inconclusive [inhibitor, partial curve]	–
CCCS(=O)(=O)C/C(N)=N/OC(=O)c1ccccc1Cl	inconclusive [inhibitor, partial curve]	–
Cc1cccc(N2C(=O)C(CC(=O)Nc3ccc(Cl)cc3)N(Cc3ccco3)C2=O)c1 (stereo not drawn)	inconclusive [inhibitor, partial curve]	–
Cc1cccc(-n2c(=O)c3c(c4cc(C)ccc4n3C)n(CC(=O)NCC3CCCO3)c2=O)c1 (stereo not drawn)	–	inactive: -10.3%
Cc1oc(-c2cccc(Cl)c2)nc1CS(=O)(=O)CC(=O)NCc1ccccc1Cl	inconclusive [inhibitor, partial curve]	–
Cn1c(=O)[nH]c(=O)c2c1nc(Sc1ncccn1)n2CCCc1ccccc1	inconclusive [inhibitor, full curve, poor fit]	–
CCN1C(=O)c2cccc3cccc1c23	active: 11.2 µM	–

Structure (SMILES)	Potency	activity change, negative = inhibition
O=S(=O)(c1ccccc1)N(F)S(=O)(=O)c1ccccc1	inconclusive [inhibitor, partial curve]	–
Cc1ccc(C)c(N2CCN(C(=O)c3cc(C)nc4c3c(C)nn4-c3cccc(F)c3)CC2)c1	–	inactive: 11.7%
S=C(NCCc1ccccc1)N1CCn2cccc2C1c1cccnc1 (stereo not drawn)	–	inactive: -22.6%
CCc1ccc(OCC(=O)NC(NC(=S)Nc2ccccc2)C(Cl)(Cl)Cl)cc1 (stereo not drawn)	–	inactive: 1.8%
CCc1ccc2oc(C(=O)Nc3c(C)n(C)n(-c4ccccc4)c3=O)cc(=O)c2c1	–	inactive: 0.4%
CCOC(=O)N1CCc2c(sc3ncn(C)c(=O)c23)C1	–	inactive: 17.2%
O=C(CF)NC(NC(=S)Nc1cccc([N+](=O)[O-])c1)C(Cl)(Cl)Cl (stereo not drawn)	inconclusive [inhibitor, partial curve]	–
Cc1cc(SCC(=O)c2ccc(O)c(O)c2)nc2ccccc12	active: 2.82 µM	–
CCOC(=O)CN1C(=O)N[C@H](c2ccc(Br)cc2)C(C(C)=O)=C1C	inconclusive [inhibitor, partial curve]	–
CCN1CCCC1CNC(=O)C1CCN(Cc2nc(-c3cccc(Br)c3)oc2C)CC1 (stereo not drawn)	–	inactive: 3.56%
CC(C)(C)c1ccc(C(=O)N/C(=C\c2cccc([N+](=O)[O-])c2)C(=O)Nc2cccc(C(=O)O)c2)cc1	inconclusive [inhibitor, partial curve, poor fit]	–
Cn1c(=O)c2c(nc(SCC(=O)c3ccccc3F)n2C)n(C)c1=O	–	inactive: -0.0577% [at 57.1 µM]
O=C(Nc1ccc2oc(-c3cccnc3)nc2c1)c1ccc(-c2ccccc2OC(F)(F)F)o1	inconclusive [inhibitor, partial curve]	–
Cn1c(CCNC(=O)c2ccco2)nc2cc(NS(=O)(=O)c3ccc(Cl)cc3)ccc21	inconclusive [inhibitor, partial curve]	–
CCOC(=O)C1=C(C)OC(N)=C(C#N)C1c1c(C)nn(-c2ccccc2)c1Cl (stereo not drawn)	inconclusive [inhibitor, partial curve]	–
CCC(=O)N1N=C(c2cccs2)CC1c1ccco1 (stereo not drawn)	inconclusive [inhibitor, partial curve]	–
N#Cc1ccc(NC(=S)Nc2ccccc2)cc1	active: 44.7 µM	–
O=C(Nc1ccc(N2CCOCC2)cc1)Nc1ccc2nc(-c3ccco3)c(-c3ccco3)nc2c1	active: 4.47 µM	–
CN(C)S(=O)(=O)c1ccc2c(c1)N(CC(=O)NCc1ccc(F)cc1)C(=O)CS2	–	inactive: 9.56%
C/C(=N/Nc1ccccc1[N+](=O)[O-])c1ccc([N+](=O)[O-])cc1	–	inactive: 8.22%
O=C(N/N=C/C(Cl)=C/c1ccc([N+](=O)[O-])cc1)C(=O)Nc1ccc(C(=O)O)cc1	inconclusive [inhibitor, partial curve]	–
CCOc1ccc(Cc2nc(-c3nonc3N)no2)cc1OCC	–	inactive: -0.101%
COc1ccc(-c2csc(N(CCc3ccc(OC)c(OC)c3)C(=O)COc3ccccc3)n2)cc1	–	inactive: 0.126%
O=C(c1ccco1)N1N=C(c2ccc3nccnc3c2)CC1c1ccccc1 (stereo not drawn)	inconclusive [inhibitor, partial curve]	–
